From PubChem BioAssay AID493208 (National Center for Advancing Translational Sciences (NCATS), 2011)
About 340 (0.77%) of roughly 44,000 compounds were called active. Not shown: some 5% with an inconclusive outcome. The call rests on the fitted dose curve; in most records, active means well fitted inhibition curve with a large enough effect; inconclusive means small, poorly fitted or top-dose-only effect; inactive means flat fitted curve, though single readings scatter. The list shows a part of the results.

Assay: Acumen qHTS Assay for Inhibitors of the mTORC1 Signaling Pathway in MEF (Tsc2-/-, p53-/-) Cells: Sytravon;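 further: plate controls were DMSO for no effect and rapamycin for full effect; nearly all actives have a fitted effect of over 50% in size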
Conditions: phospho-rpS6 immunofluorescence/PI, 24 h; series mostly up to 38.3 µM; activity change, negative = inhibition: at the top concentration
Summary of the method: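 Cell-based qHTS: Tsc2-/- p53-/- MEF, 24 h cpd, 37 °C; fix/perm, anti-phospho-S6 Alexa-488 + PI; Acumen 488 nm scan; pS6/PI ratio, % positive cells; rapamycin 7.5 nM = inhibition ref; PI count = viability.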

Activity change, negative = inhibition, inactive:
CCOC(=O)c1c(NC(=O)/C(C#N)=C/c2ccccc2)sc2c1CCC2 -2.7%, COc1cc(NC(=O)Cn2cnc3c2c(=O)n(C)c(=O)n3C)c(OC)cc1Cl 15.1%, Cc1cc(C)cc(NC(=O)Nc2ccccc2OCc2cc(=O)n3ccccc3n2)c1 0.211%, CCOc1ccccc1NC(=O)c1c(NCc2cccs2)sc2c1CCCCC2 4.1%, CCOc1cc(/C=C(\C#N)C(=O)Nc2ccc(C)cc2)ccc1OCc1cc(=O)n2nc(CC)sc2n1 3.22%, CCOc1ccc(NC(=O)c2c(NC(=O)c3ccccc3F)sc3c2CCC3)cc1 -3.69%, CCC(=O)N1CCc2cc(CNS(=O)(=O)c3ccc(NC(=O)CC(C)C)cc3)ccc21 -17.2%, CCc1c(C)sc2c1CCN(C(=O)Nc1cc(Cl)c(OC)cc1OC)C2c1ccccc1 (stereo not drawn) 0%, C#CCn1cnc2c(cnn2-c2ccc(F)cc2)c1=O 0.128%, CCC(=O)N1CCc2cc(Br)cc(S(=O)(=O)CCC(=O)Nc3ccc(C)c(F)c3)c21 1.37%, COc1ccc2c(c1)CC(C(=O)NCCCN1CCN(c3ccccc3F)CC1)CO2 (stereo not drawn) 1.52%, CCn1c(C)c(C)c2cc(C(=O)NCc3ccc(OC)cc3OC)ccc21 4.79%, CCN(CC)S(=O)(=O)c1ccc(NC(=O)c2c(C)oc3ncnc(N4CCOCC4)c23)cc1 7.22%, Cc1ccc(-c2nnc(Nc3ccc(OCC(N)=O)cc3)c3ccccc23)cc1S(=O)(=O)N(C)C 1.51%, CC(C)(C)c1ccc(C2=NC(C)(C)N(CC(=O)Nc3ccc(F)c(F)c3)C2=O)cc1 0.569%, COc1ccc(-c2onc(C)c2C)cc1S(=O)(=O)N1CCN(c2ccc(Cl)cc2)CC1 -9.51%, CC(C)OC(=O)c1c(NC(=O)COc2cccc(Br)c2)sc2c1CCCC2 15.2%, O=C(CSc1nc2c([nH]c3ccccc32)c(=O)n1-c1ccccc1)N1CCOCC1 -6.41%, CC(CNC(=O)C1CCN(S(=O)(=O)c2ccc3c(ccn3C)c2)CC1)c1ccccc1 (stereo not drawn) -7.78%, CCN(CC)CCn1c(-c2ccccc2)csc1=Nc1ccccc1 -0.648%, Nc1nonc1C(=O)NCCNCc1cccc(Cl)c1Cl -20.2%, CCCCN(CC)CCCNC(=O)C1CCCN(c2ncnc3c2nc2n3CCCCC2)C1 (stereo not drawn) -0.819%, Cc1ccc(OCCn2c(-c3ccc(Br)cc3)nc3ccccc3c2=O)cc1C -0.758%, Cc1c(CC(=O)NCCc2ccccc2F)c(=O)oc2cc(O)c(Cl)cc12 -2.44%, O=C(COc1ccccc1[N+](=O)[O-])N1CCC(c2nc3ccccc3o2)CC1 2.34%, Cc1ccc(-n2ncc3c(N(CC(C)C)CC(C)C)ncnc32)c(C)c1 -9.29%, Cc1ccc(CCNC(=O)c2c(C)oc3nc(C)nc(N4CCOCC4)c23)cc1 -1.07%, CCN(CCCNC(=O)c1cc(Nc2ccc(OC)cc2OC)nc2ccccc12)c1cccc(C)c1 2.32%
